# Laboratory results reported in US20180057551A1 (AMYLONIX, published 2018).
# Substitutions are numbered along the chain they refer to.
# B1: AQHDEALE-[ABPP115]-VDYV-[ABD]-YVPG (designed binder)
# chain: AQHDEALEAGRERVYLPNLNADQLCAFIQSLEDDSSQSANLLAEAKKLNDAQAPASSSSGSSSSGRASAGGEIVYFPNLNAHQLCAFIRSLEDDPSQSANLLAEAKKLNDAQAPKVDYVLAEAKVLANRELDKYGVSDYYKNLINNAKTVEGVKALIDEILAALPYVPG
# notes: periplasmic ABD fusion
# B2: AQHDEALE-[ABPP138]-VDYV-[ABD]-YVPG (designed binder)
# chain: B1 chain with R11G, R13M, Q29N, S35P
# notes: periplasmic ABD fusion
# B3: AQHDEALE-[ABPP116]-VDYV-[ABD]-YVPG (designed binder)
# chain: B1 chain with Q29R, S35P, I73R, F76L, H82D, R89N
# notes: periplasmic ABD fusion
# B4: AQHDEALE-[ABPP112]-VDYV-[ABD]-YVPG (designed binder)
# chain: B1 chain with R11G, R13M, D22H, Q29R, S35P, F76L, H82D, R89Q
# notes: periplasmic ABD fusion
# B5: AQHDEALE-[ABPP121]-VDYV-[ABD]-YVPG (designed binder)
# chain: B1 chain with P17Y, Q29R, S35P, I73R, F76L, H82D
# notes: periplasmic ABD fusion
# B6: AQHDEALE-[ABPP110]-VDYV-[ABD]-YVPG (designed binder)
# chain: B1 chain with D22H, Q29R, S35P, I73R, F76L, H82D
# notes: periplasmic ABD fusion
# B7: AQHDEALE-[ABPP109]-VDYV-[ABD]-YVPG (designed binder)
# chain: B1 chain with R11G, D22H, S35P, I73R, F76L
# notes: periplasmic ABD fusion
# B8: AQHDEALE-[ABPP124]-VDYV-[ABD]-YVPG (designed binder)
# chain: B1 chain with R11G, Q29R, S35P, S38N, I73R, H82D
# notes: periplasmic ABD fusion
# B9: AQHDEALE-[ABPP107]-VDYV-[ABD]-YVPG (designed binder)
# chain: B1 chain with Q29R, S35R, S38N, H82D, P95S
# notes: periplasmic ABD fusion
# B10: AQHDEALE-[ABPP120]-VDYV-[ABD]-YVPG (designed binder)
# chain: B1 chain with R11G, R13I, L16F, D22H, S35P, S38N, I73R, H82D
# notes: periplasmic ABD fusion
# B11: AQHDEALE-[ABPP141]-VDYV-[ABD]-YVPG (designed binder)
# chain: B1 chain with R11G, R13I, L16F, D22H, S35P, S38N, I73R, H82D, P95S
# notes: periplasmic ABD fusion
# B12: AQHDEALE-[ABPP123]-VDYV-[ABD]-YVPG (designed binder)
# chain: B1 chain with L16I, D22H, Q29R, S35P, H82D, R89N
# notes: periplasmic ABD fusion
# B13: AQHDEALE-[ABPP114]-VDYV-[ABD]-YVPG (designed binder)
# chain: B1 chain with R11G, L16F, Q29R, S35P, I73R, F76L, H82D
# notes: periplasmic ABD fusion
# B14: AQHDEALE-[ABPP142]-VDYV-[ABD]-YVPG (designed binder)
# chain: B1 chain with D22H, S35P, H82D, R89Q
# notes: periplasmic ABD fusion
# B15: AQHDEALE-[ABPP111]-VDYV-[ABD]-YVPG (designed binder)
# chain: B1 chain with L16F, S35P, S38N, I73R, H82D, P95S
# notes: periplasmic ABD fusion
# B16: AQHDEALE-[ABPP118]-VDYV-[ABD]-YVPG (designed binder)
# chain: B1 chain with L16I, Q29R, S35P
# notes: periplasmic ABD fusion
# B17: AQHDEALE-[ABPP119]-VDYV-[ABD]-YVPG (designed binder)
# chain: B1 chain with I73R, P77R
# notes: periplasmic ABD fusion
# B18: AQHDEALE-[ABPP122]-VDYV-[ABD]-YVPG (designed binder)
# chain: B1 chain with R11G, L16F, D22H, Q29R, S35P, I73R, F76L, H82D
# notes: periplasmic ABD fusion
# B19: AQHDEALE-[ABPP117]-VDYV-[ABD]-YVPG (designed binder)
# chain: B1 chain with D22H, Q29R, S35P, H82D, P95S
# notes: periplasmic ABD fusion
# B20: AQHDEALE-[ABPP113]-VDYV-[ABD]-YVPG (designed binder)
# chain: B1 chain with L16I, Q29R, S35P, H82D
# notes: periplasmic ABD fusion
# B21: AQHDEALE-[ABPP108]-VDYV-[ABD]-YVPG (designed binder)
# chain: B1 chain with P17R, Q29R, S35P, S38N, R89Q
# notes: periplasmic ABD fusion
# B22: AQHDEALE-[ABPP059]-VDYV-[ABD]-YVPG (designed binder)
# chain: B1 chain with R11G, Q29R, S35P, G71R, I73R, F76L, H82D, R89Q
# notes: periplasmic ABD fusion
# B23: AQHDEALE-[ABPP065]-VDYV-[ABD]-YVPG (designed binder)
# chain: AQHDEALEAGGEIVYFPNLNADQLCAFIRSLEDDPSQQANLLAEAKKLNDAQAPASSSSGSSSSGRASAGRERVYLPNLNADQLCAFIRSLEDDPSQRANLLAEAKKLNDAQAPKVDYVLAEAKVLANRELDKYGVSDYYKNLINNAKTVEGVKALIDEILAALPYVPG
# notes: periplasmic ABD fusion
# B24: AQHDEALE-[ABPP049]-VDYV-[ABD]-YVPG (designed binder)
# chain: B23 chain with I13R, P17T, R29Q, Q38S, D82H, R98Q
# notes: periplasmic ABD fusion
# B25: AQHDEALE-[ABPP064]-VDYV-[ABD]-YVPG (designed binder)
# chain: B1 chain with R11G, S35P, I73R, F76L, R89Q
# notes: periplasmic ABD fusion
# B26: AQHDEALE-[ABPP072]-VDYV-[ABD]-YVPG (designed binder)
# chain: B1 chain with Q29R, S35P, H82D
# notes: periplasmic ABD fusion
# B27: AQHDEALE-[ABPP078]-VDYV-[ABD]-YVPG (designed binder)
# chain: B1 chain with D22H, Q29N, S35P, F76L, R89Q
# notes: periplasmic ABD fusion
# B28: AQHDEALE-[ABPP051]-VDYV-[ABD]-YVPG (designed binder)
# chain: B23 chain with L91I, P95R, R98Q
# notes: periplasmic ABD fusion
# B29: AQHDEALE-[ABPP055]-VDYV-[ABD]-YVPG (designed binder)
# chain: B1 chain with L16I, Q29R, S35P, H82D, R89Q
# notes: periplasmic ABD fusion
# B30: AQHDEALE-[ABPP095]-VDYV-[ABD]-YVPG (designed binder)
# chain: B23 chain with I13R, F16L, Q38S, R71G, R98S
# B31: AQHDEALE-[ABPP070]-VDYV-[ABD]-YVPG (designed binder)
# chain: B1 chain with Q29R, S35P, I73R, F76L, H82D, R89Q
# notes: periplasmic ABD fusion
# B32: AQHDEALE-[ABPP035]-VDYV-[ABD]-YVPG (designed binder)
# chain: B23 chain with D22H, R89N, L91I, R98S
# notes: periplasmic ABD fusion
# Target: T1, human Aβ1-40 peptide (human, biotin at the C-terminus (flow cytometry, Examples 2-4) or at the N-terminus (SPR, ELISA); unlabeled plus Alexa488/Alexa647-labeled in FCS)
# T1 construct: synthetic peptide (AnaSpec); one entry for all labelled forms, label named under assay; also called hAβ1-40; Aβ40
# Experiment: sandwich ELISA, periplasmic ABD fusion, 2 nM biotinylated hAβ1-40
# Method: Half-area 96-well ELISA plates (Costar, cat. no. 3690) were coated at 4° C. overnight with 2 μg/ml of an anti-ABD goat antibody (produced in-house) diluted in coating buffer (50 mM sodium carbonate, pH 9.6; Sigma, cat. no. C3041).
row,Binder,ELISA response (absorbance 450 nm) [AU]
1,B1,≥ 0.2
2,B2,≥ 0.2
3,B3,≥ 0.2
4,B4,≥ 0.2
5,B5,≥ 0.2
6,B6,≥ 0.2
7,B7,≥ 0.2
8,B8,≥ 0.2
9,B9,≥ 0.2
10,B10,≥ 0.2
11,B11,≥ 0.2
12,B12,≥ 0.2
13,B13,≥ 0.2
14,B14,≥ 0.2
15,B15,≥ 0.2
16,B16,≥ 0.2
17,B17,≥ 0.2
18,B18,≥ 0.2
19,B19,≥ 0.2
20,B20,≥ 0.2
21,B21,≥ 0.2

# Target: T1, human Aβ1-40 peptide
# Experiment: ELISA, fusion captured by anti-ABD antibody, biotinylated hAβ1-40 titrated
# T1 sequence (peptide, as listed by the source): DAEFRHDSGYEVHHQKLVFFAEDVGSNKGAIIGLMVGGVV
row,Binder,EC50 [nM]
1,B1,3.9
2,B3,3.7
3,B4,4.6
4,B22,13
5,B5,59
6,B23,13
7,B7,5
8,B8,13
9,B9,4.8
10,B10,3.5
11,B24,7.1
12,B25,4
13,B12,5.4
14,B15,14
15,B26,8.5
16,B16,5.2
17,B17,3.9
18,B18,5.2
19,B27,30
20,B28,4.6
21,B29,2.8
22,B19,6.4
23,B20,3.8
24,B21,5.8

# Target: T1, human Aβ1-40 peptide
# Experiment: SPR Biacore 2000, periplasmic sample over immobilised biotinylated hAβ1-40
row,Binder,Response RU [RU]
1,B30,24.6
2,B1,13.3
3,B2,10.1
4,B3,15.1
5,B4,12.1
6,B22,15.4
7,B5,47.5
8,B23,8.4
9,B6,13.8
10,B7,20.2
11,B8,23.3
12,B31,16.6
13,B9,15.6
14,B10,13.1
15,B11,10.5
16,B24,13.7

row,Binder,Response RU [RU]
1,B25,12
2,B12,15.5
3,B32,8.6
4,B13,34.1
5,B14,9.5
6,B15,14.2
7,B26,10.1
8,B16,19.2
9,B17,15.6
10,B18,30.1
11,B27,12.5
12,B28,21.4
13,B29,18.2
14,B19,9.7
15,B20,20.2
16,B21,15.2

# Target: T2, anti-ABD goat antibody (produced in-house)
# T2 construct: also called Anti-ABD surface
# Experiment: SPR Biacore 2000, periplasmic sample over immobilised anti-ABD goat antibody
row,Binder,Response RU [RU]
1,B30,40.6
2,B1,39.7
3,B2,37.8
4,B3,40
5,B4,48.1
6,B22,39.5
7,B5,47.4
8,B23,39.1
9,B6,37.5
10,B7,42
11,B8,41
12,B31,40.7
13,B9,42.2
14,B10,37.7
15,B11,31.5
16,B24,30.6

row,Binder,Response RU [RU]
1,B25,38.8
2,B12,38.8
3,B32,31.8
4,B13,50.9
5,B14,32.2
6,B15,35.6
7,B26,39.7
8,B16,41.2
9,B17,31.8
10,B18,47.6
11,B27,38.6
12,B28,51.5
13,B29,37
14,B19,31.6
15,B20,42
16,B21,41.5
